Assay results reported in the supplement of paper PMC4967469.
Lines with a small IC50 respond at low doses; a limit (>, <) means that the fit lies beyond the doses tested. AUC is the area under the same curve over the 256-fold range up to the top dose, as a fraction; values near 1 show little effect. For some assays here: Any top dose called inferred is not printed in the source and was worked back from the curve model. For some assays here: Where an entry number is given, a second screen of the drug exists; the two often differ.

Key:
Experiment in all cases: Viability of human cancer cell lines after 72 h of drug (GDSC screen)
[1] = compound: O=c1cc(-c2cccc3c2Sc2ccccc2S3)oc(N2CCOCC2)c1 [KU-55933]; conditions: top dose 10 µM
Description: (§1)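 Human cancer cell lines in 384-well plates, medium with 10% serum, drug for 72 h over a 256-fold dose range (nine 2-fold or five 4-fold steps up to the top dose). Adherent lines were fixed and stained with the nucleic acid dye Syto60, suspension lines read with resazurin; signal relative to control wells, capped at 0 and 100%. One two-parameter sigmoid per drug and line, fitted in a mixed model over all curves with the slope shared within a line.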

[2] = compound: C=CC(=O)Nc1cc(-n2c(=O)ccc3cnc4ccc(-c5cn[nH]c5)cc4c32)ccc1C [QL-X-138]; conditions: top dose 10.24 µM; top dose inferred
Description: as §1

[3] = compound: COc1cc(O)c2c(c1)/C=C/C[C@H](O)[C@H](O)C(=O)/C=C\C[C@H](C)OC2=O [(5Z)-7-Oxozeaenol]; conditions: top dose 10 µM; top dose inferred
Description: as §1

[4] = compound: Cc1cnc(-c2cnc(NCCNc3ccc(C#N)cn3)nc2-c2ccc(Cl)cc2Cl)[nH]1 [CHIR-99021]
Description: as §1

[5] = compound: COc1cc2ncnc(-n3nc(-c4ccccn4)nc3N)c2cc1OC [CP466722]; conditions: top dose 16 µM; top dose inferred
Description: as §1

[6] = compound: COc1nc(C)cnc1NS(=O)(=O)c1cccnc1-c1ccc(-c2nnco2)cc1 [Zibotentan]; conditions: top dose 20 µM; top dose inferred
Description: as §1

[7] = compound: COc1cc(N2CCC(O)CC2)ccc1Nc1cc(Nc2ccccc2S(=O)(=O)C(C)C)c2cc[nH]c2n1 [MPS-1-IN-1]; conditions: top dose 20 µM; top dose inferred
Description: as §1

[8] = compound: CCn1c(-c2nonc2N)nc2cnc(Oc3cccc(NC(=O)c4ccc(OCCN5CCOCC5)cc4)c3)cc21 [GSK269962A]; conditions: top dose 5 µM; screen: GDSC drug entry 1192; top dose inferred
Description: as §1

[9] = compound: C/C=C(/C)C(=O)O[C@H]1C(C)=C2[C@H]([C@@H]1OC(=O)CCCCCCC)[C@@](C)(OC(C)=O)C[C@H](OC(=O)CCC)[C@@]1(O)[C@H]2OC(=O)[C@@]1(C)O [Thapsigargin]; conditions: top dose 0.512 µM; top dose inferred
Description: as §1

[10] = compound: Cc1ccc(F)c(NC(=O)Nc2ccc(-c3cccc4[nH]nc(N)c34)cc2)c1 [ABT-869]; conditions: top dose 1.024 µM; top dose inferred
Description: as §1

[11] = top dose 2.56 µM, screen: GDSC drug entry 154
[12] = top dose 10 µM, screen: GDSC drug entry 1241, top dose inferred

Row | Cell Line | AUC [1] | IC50 [1] [µM] | AUC [2] | IC50 [2] [µM] | AUC [3] | IC50 [3] [µM] | AUC [4, 11] | IC50 [4, 11] [µM] | AUC [4, 12] | IC50 [4, 12] [µM] | AUC [5] | IC50 [5] [µM] | AUC [6] | IC50 [6] [µM] | AUC [7] | IC50 [7] [µM] | AUC [8] | IC50 [8] [µM] | AUC [9] | IC50 [9] [µM] | AUC [10] | IC50 [10] [µM]
1 | HCC1806 (breast, adherent) | 0.988 | > 10 | 0.794 | 4.3 | 0.778 | 3.73 | 0.975 | > 2.56 | 0.975 | > 10 | 0.902 | > 16 | 0.987 | > 20 | 0.962 | > 20 | 0.936 | > 5 | 0.246 | 0.00641 | 0.989 | > 1.02
2 | HCT-116 (large intestine, adherent) | 0.978 | > 10 | 0.653 | 1.66 | 0.459 | 0.485 |  |  |  |  | 0.735 | 4.49 | 0.987 | > 20 |  |  | 0.823 | 2.75 | 0.243 | 0.00608 | 0.979 | > 1.02
3 | HLE (liver, adherent) | 0.955 | > 10 | 0.83 | 5.93 | 0.558 | 0.89 | 0.988 | > 2.56 | 0.953 | > 10 | 0.963 | > 16 | 0.988 | > 20 | 0.937 | > 20 | 0.857 | 3.7 | 0.255 | 0.00665 | 0.977 | > 1.02
4 | Jurkat (T-cell leukaemia, suspension) | 0.967 | > 10 |  |  | 0.773 | 3.22 |  |  | 0.949 | > 10 |  |  |  |  |  |  | 0.845 | 2.69 |  |  |  | 
5 | LoVo (large intestine, adherent) | 0.818 | 5.72 | 0.933 | > 10.2 | 0.497 | 0.614 | 0.922 | > 2.56 | 0.933 | > 10 | 0.914 | > 16 | 0.987 | > 20 | 0.97 | > 20 | 0.86 | 4.29 | 0.237 | 0.0055 | 0.985 | > 1.02
6 | MDA-MB-157 (breast, adherent) | 0.961 | > 10 | 0.858 | 8.8 | 0.798 | 4.89 | 0.971 | > 2.56 | 0.95 | > 10 | 0.952 | > 16 | 0.988 | > 20 | 0.978 | > 20 | 0.937 | > 5 | 0.901 | > 0.512 | 0.986 | > 1.02
7 | MDA-MB-436 (breast, adherent) | 0.965 | > 10 | 0.934 | > 10.2 | 0.642 | 1.71 | 0.979 | > 2.56 | 0.973 | > 10 | 0.942 | > 16 | 0.981 | > 20 | 0.893 | > 20 | 0.941 | > 5 | 0.288 | 0.00678 | 0.982 | > 1.02
